# Experimental data from the supplement of paper PMC8728848.
# This is one part of the list.
# Columns and labels:
# Experiment in all cases: glycan array binding signal (z-score within array); higher = stronger binding
# Details in all cases: glycan notation: IUPAC condensed, linker removed
# [1] = molecular target: Fuc(a1-2)Gal(b1-4)GlcNAc(b1-3)Gal(b1-4)GlcNAc(b1-3)Gal(b1-4)GlcNAc
# Method in brief: (§1)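 The Consortium for Functional Glycomics database supplied 3228 glycan arrays, of which those lacking an available protein sequence were dropped. The binding signal, a within-array Z-score, was averaged across arrays of the same protein sequence and across linkers. Negative scores can be read as non-binding.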
# [2] = molecular target: Fuc(a1-2)Gal(b1-4)GlcNAc(b1-3)GalNAc
# Method in brief: as §1
# [3] = molecular target: Fuc(a1-2)Gal(b1-4)GlcNAc(b1-3)[Fuc(a1-2)Gal(b1-4)GlcNAc(b1-6)]GalNAc
# Method in brief: as §1
# [4] = molecular target: Fuc(a1-2)Gal(b1-4)GlcNAc(b1-6)GalNAc
# Method in brief: as §1
# [5] = molecular target: Fuc(a1-2)Gal(b1-4)GlcNAc6S
# Method in brief: as §1
# [6] = molecular target: Fuc(a1-2)Gal(b1-4)[Fuc(a1-3)]GlcNAc
# Method in brief: as §1
# [7] = molecular target: Fuc(a1-2)Gal(b1-4)[Fuc(a1-3)]GlcNAc(b1-2)Man(a1-3)[Fuc(a1-2)Gal(b1-4)[Fuc(a1-3)]GlcNAc(b1-2)Man(a1-6)]Man(b1-4)GlcNAc(b1-4)GlcNAc
# Method in brief: as §1
# [8] = molecular target: Fuc(a1-2)Gal(b1-4)[Fuc(a1-3)]GlcNAc(b1-2)Man(a1-6)[Fuc(a1-2)Gal(b1-4)[Fuc(a1-3)]GlcNAc(b1-2)Man(a1-3)]Man(b1-4)GlcNAc(b1-4)[Fuc(a1-6)]GlcNAc
# Method in brief: as §1
# [9] = molecular target: Fuc(a1-2)Gal(b1-4)[Fuc(a1-3)]GlcNAc(b1-2)[Fuc(a1-2)Gal(b1-4)[Fuc(a1-3)]GlcNAc(b1-4)]Man(a1-3)[Fuc(a1-2)Gal(b1-4)[Fuc(a1-3)]GlcNAc(b1-2)Man(a1-6)]Man(b1-4)GlcNAc(b1-4)GlcNAc
# Method in brief: as §1
# [10] = molecular target: Fuc(a1-2)Gal(b1-4)[Fuc(a1-3)]GlcNAc(b1-3)Gal(b1-4)[Fuc(a1-3)]GlcNAc
# Method in brief: as §1
# [11] = molecular target: Fuc(a1-2)Gal(b1-4)[Fuc(a1-3)]GlcNAc(b1-3)Gal(b1-4)[Fuc(a1-3)]GlcNAc(b1-3)Gal(b1-4)[Fuc(a1-3)]GlcNAc
# Method in brief: as §1
# [12] = molecular target: Fuc(a1-2)Gal(b1-4)[Fuc(a1-3)]GlcNAc(b1-3)GalNAc
# Method in brief: as §1
# [13] = molecular target: Fuc(a1-2)Gal(b1-4)[Fuc(a1-3)]GlcNAc(b1-3)[Neu5Ac(a2-6)Gal(b1-4)GlcNAc(b1-6)]Gal(b1-4)Glc
# Method in brief: as §1
# [14] = molecular target: Fuc(a1-2)Gal6S(b1-3)GlcNAc
# Method in brief: as §1
# [15] = molecular target: Fuc(a1-2)Gal6S(b1-3)GlcNAc6S
# Method in brief: as §1
# [16] = molecular target: Fuc(a1-2)Gal6S(b1-4)Glc
# Method in brief: as §1
# [17] = molecular target: Fuc(a1-2)Gal6S(b1-4)Glc6S
# Method in brief: as §1
# [18] = molecular target: Fuc(a1-2)Gal6S(b1-4)GlcNAc
# Method in brief: as §1
# [19] = molecular target: Fuc(a1-2)[Gal(a1-3)]Gal
# Method in brief: as §1
# [20] = molecular target: Fuc(a1-2)[Gal(a1-3)]Gal(b1-3)GalNAc
# Method in brief: as §1
# [21] = molecular target: Fuc(a1-2)[Gal(a1-3)]Gal(b1-3)GlcNAc
# Method in brief: as §1
# [22] = molecular target: Fuc(a1-2)[Gal(a1-3)]Gal(b1-3)GlcNAc(b1-2)Man(a1-3)[Fuc(a1-2)[Gal(a1-3)]Gal(b1-3)GlcNAc(b1-2)Man(a1-6)]Man(b1-4)GlcNAc(b1-4)GlcNAc
# Method in brief: as §1
# [23] = molecular target: Fuc(a1-2)[Gal(a1-3)]Gal(b1-3)GlcNAc(b1-2)Man(a1-3)[Fuc(a1-2)[Gal(a1-3)]Gal(b1-3)GlcNAc(b1-2)Man(a1-6)]Man(b1-4)GlcNAc(b1-4)[Fuc(a1-6)]GlcNAc
# Method in brief: as §1
# [24] = molecular target: Fuc(a1-2)[Gal(a1-3)]Gal(b1-3)GlcNAc(b1-3)GalNAc
# Method in brief: as §1
# [25] = molecular target: Fuc(a1-2)[Gal(a1-3)]Gal(b1-4)Glc
# Method in brief: as §1
# [26] = molecular target: Fuc(a1-2)[Gal(a1-3)]Gal(b1-4)GlcNAc
# Method in brief: as §1
# [27] = molecular target: Fuc(a1-2)[Gal(a1-3)]Gal(b1-4)GlcNAc(b1-2)Man(a1-3)[Fuc(a1-2)[Gal(a1-3)]Gal(b1-4)GlcNAc(b1-2)Man(a1-6)]Man(b1-4)GlcNAc(b1-4)GlcNAc
# Method in brief: as §1
# [28] = molecular target: Fuc(a1-2)[Gal(a1-3)]Gal(b1-4)GlcNAc(b1-2)Man(a1-3)[Fuc(a1-2)[Gal(a1-3)]Gal(b1-4)GlcNAc(b1-2)Man(a1-6)]Man(b1-4)GlcNAc(b1-4)[Fuc(a1-6)]GlcNAc
# Method in brief: as §1
# [29] = molecular target: Fuc(a1-2)[Gal(a1-3)]Gal(b1-4)GlcNAc(b1-3)GalNAc
# Method in brief: as §1
# [30] = molecular target: Fuc(a1-2)[Gal(a1-3)]Gal(b1-4)GlcNAc(b1-6)GalNAc
# Method in brief: as §1
binder,measurement,setting,value
"PRKCE (Homo sapiens), Q02156 (protein) MVVFNGLLKIKICEAVSLKPTAWSLRHAVGPRPQTFLLDPYIALNVDDSRIGQTATKQKTNSPAWHDEFVTDVCNGRKIELAVFHDAPIGYDDFVANCTIQFEELLQNGSRHFEDWIDLEPEGRVYVIIDLSGSSGEAPKDNEERVFRERMRPRKRQGAVRRRVHQVNGHKFMATYLRQPTYCSHCRDFIWGVIGKQGYQCQVCTCVVHKRCHELIITKCAGLKKQETPDQVGSQRFSVNMPHKFGIHNYKVPTFCDHCGSLLWGLLRQGLQCKVCKMNVHRRCETNVAPNCGVDARGIAKVLADLGVTPDKITNSGQRRKKLIAGAESPQPASGSSPSEEDRSKSAPTSPCDQEIKELENNIRKALSFDNRGEEHRAASSPDGQLMSPGENGEVRQGQAKRLGLDEFNFIKVLGKGSFGKVMLAELKGKDEVYAVKVLKKDVILQDDDVDCTMTEKRILALARKHPYLTQLYCCFQTKDRLFFVMEYVNGGDLMFQIQRSRKFDEPRSRFYAAEVTSALMFLHQHGVIYRDLKLDNILLDAEGHCKLADFGMCKEGILNGVTTTTFCGTPDYIAPEILQELEYGPSVDWWALGVLMYEMMAGQPPFEADNEDDLFESILHDDVLYPVWLSKEAVSILKAFMTKNPHKRLGCVASQNGEDAIKQHPFFKEIDWVLLEQKKIKPPFKPRIKTKRDVNNFDQDFTREEPVLTLVDEAIVKQINQEEFKGFSYFGEDLMP",glycan array binding signal (z-score),[1],-0.376
same,glycan array binding signal (z-score),[2],-0.238
same,glycan array binding signal (z-score),[3],-0.259
same,glycan array binding signal (z-score),[4],0.117
same,glycan array binding signal (z-score),[5],0.411
same,glycan array binding signal (z-score),[6],-0.358
same,glycan array binding signal (z-score),[7],-0.153
same,glycan array binding signal (z-score),[8],0.364
same,glycan array binding signal (z-score),[9],0.125
same,glycan array binding signal (z-score),[10],-0.311
same,glycan array binding signal (z-score),[11],-0.355
same,glycan array binding signal (z-score),[12],-0.231
same,glycan array binding signal (z-score),[13],-0.275
same,glycan array binding signal (z-score),[14],-0.237
same,glycan array binding signal (z-score),[15],0.147
same,glycan array binding signal (z-score),[16],-0.311
same,glycan array binding signal (z-score),[17],3.89
same,glycan array binding signal (z-score),[18],1.09
same,glycan array binding signal (z-score),[19],-0.206
same,glycan array binding signal (z-score),[20],-0.057
same,glycan array binding signal (z-score),[21],-0.168
same,glycan array binding signal (z-score),[22],-0.251
same,glycan array binding signal (z-score),[23],-0.434
same,glycan array binding signal (z-score),[24],0.498
same,glycan array binding signal (z-score),[25],0.142
same,glycan array binding signal (z-score),[26],-0.369
same,glycan array binding signal (z-score),[27],-0.355
same,glycan array binding signal (z-score),[28],-0.34
same,glycan array binding signal (z-score),[29],-0.348
same,glycan array binding signal (z-score),[30],4.32
